Reference: the supplement of paper PMC11417369
± gives the standard deviation of the averaged measurements. This is one part of the list.

These sequences were tested on PfAP2-LT AP2 domain (GST-tagged) (assay: gcPBM binding intensity (ln(normalized median fluorescence intensity)); higher = stronger DNA binding).
Procedure, shortened: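 Binding intensity values are the highest Masliner-normalised natural-log median intensity among replicate spots of either probe orientation. The binding step lasted 1 h in 1× PBS with 1% milk, 0.2 mg/ml BSA, 0.5% salmon testes DNA and 0.03% Triton X-100, using GST-tagged P. falciparum DNA-binding domains expressed in E. coli on an Agilent 4 × 180k array of primer-extended double-stranded 36-bp intergenic genomic probes plus negative controls. Alexa488 anti-GST antibody and a 488 nm scan detected bound protein.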

Sequence	gcPBM binding intensity (ln)
TTATAAATGTAACGATGTACTTTTAAAAGTTTCCTT [XGTACX_site109]	8.57 ± 0.56
ATAGCTGTATTTAATACACACAAAACTTTCATTCCA [CACACA_site5868]	8.91 ± 0.45
GAGTGAGCTAATAAAAGTACGTAATAAACAAACGCA [XGTACX_site131]	9.02 ± 0.52
ACCATGAAAATATTATGTACATATGTATTATATATA [XGTACX_site408]	8.87 ± 0.33
TTTTTTTGTTTTGTTTTTTTTTTTTTTTTTTTTTTG [CACACA_negctrl_site570]	8.46 ± 0.54
TTACCGTAAAAATTTTGTACATAAAATAATATATAA [XGTACX_site532]	8.56 ± 0.46
CACATACATATATATACACACAAATATATATACACA [CACACA_site8164]	9.31 ± 0.34
GTATGTGTGTCAAGTCGTACTTACCTTTAAATTTTT [XGTACX_site2507]	9.11 ± 0.35
GATATAAAATATTGGTGTACTTTTTTTTTTTTTTTT [XGTACX_site7174]	8.63 ± 0.39
TTTTTTTTTTTTTTTTTTTCTATTTTACTGTTTCGT [CACACA_negctrl_site850]	8.46 ± 0.72
ATAATTAATAAATAATGTACATATATATTATATTTT [XGTACX_site8546]	8.59 ± 0.47
TGTGAAGTACCGAATGTGCACTGTGTGTGTTCTTTT [GTGCAC_site9613]	9.34 ± 0.43
TATATATATGGACACACACACATATAAATAAATAAA [CACACA_site4406]	9.71 ± 0.49
TTTTTATATTTTTGCACACATTCTTTACTCTTCAAA [CACACA_site2210]	9.22 ± 0.42
TTAAAAAAAAAACACACACACATACACATATATATA [CACACA_site3299]	9.91 ± 0.2
ATGATTATTTTAAAAAGTACTAATTATTATTTTTTT [XGTACX_site7242]	8.34 ± 0.47
ATACACATTCGAAATAACAAAAAAATACATACACAT [GTGCAC_negctrl_site628]	9.18 ± 0.35
AAAAAAAATAATAATACACACAATATGATATGTACA [CACACA_site850]	8.96 ± 0.43
GAATATGAATATTTGCGTACTTATATAACTGTTCTA [XGTACX_site883]	8.91 ± 0.45

Sequence	gcPBM binding intensity (ln)
TACTATAAGATATATACACACAAGAAATACAAAACG [CACACA_site6764]	9.38 ± 0.43
TATTTTTCCATAAAAATTTATATAGAAACAAATAAT [GTGCAC_negctrl_site103]	8.18 ± 0.28
ATTATTTTAATTTTAATTTTTTTTTTTTTTTGTTTT [CACACA_negctrl_site1063]	8.38 ± 0.57
CCCTTTTATTAAAATTCACACACATAAATTTTTATA [CACACA_site8611]	8.94 ± 0.46
ATATATGTATATTTTTGTACGCATAAATATATTTTT [XGTACX_site827]	8.7 ± 0.38
TTTTTATACAATTAGACACACACAAAAAGTATATAT [CACACA_site8272]	9.08 ± 0.41
TGCTTAATTTACGTGGGTACATACACCTCATATATT [XGTACX_site3093]	8.96 ± 0.46
TTAATACATATATATATATTATATATATATATATAT [TGCATGCA_negctrl_site177]	9.05 ± 0.25
TATCGTTATATAATATGTACATATAAAATTTAAATT [XGTACX_site1887]	8.57 ± 0.39
AAAATGTATATATAAACATGCACACGTGGTTGTATA [TGCATGCA_site847]	9.14 ± 0.27
TATATATTATGACCACCACACACCTATACGCATAAC [CACACA_site2447]	9.44 ± 0.085
TCTTAAATTTCTTTATGTACATAATTAATATATTTA [XGTACX_site4456]	8.74 ± 0.49
ATATATATATATATATGTACATATCACTTTAAATAT [XGTACX_site3859]	9.74 ± 0.042
TTTTCTTAAAAAATCAAACACACATATATATATACA [CACACA_site2297]	8.62 ± 0.37
ATGATAGTATGTATGAGTACGAAAAAAAAAAATTAA [XGTACX_site32]	8.73 ± 0.54
AAATGCAAATGATGATGTACATACAAAAATTAAATT [XGTACX_site5323]	9.13 ± 0.47
TGTGGGAATAACCACACACACACACCCATATATATA [CACACA_site5876]	9.78 ± 0.28
ATATATATATATATTGTACACACATTTATGCATATA [CACACA_site9055]	9.68 ± 0.2
CTCAAACAATATTATATAATAAAGTACATATATATT [CACACA_negctrl_site446]	8.79 ± 0.35

Sequence	gcPBM binding intensity (ln)
TATATTTTTATATTTTGTACATATAGTAAATATAAA [XGTACX_site4768]	8.24 ± 0.38
AAAAATAAATATACATGTACTTAAAATAATCGAATA [XGTACX_site8432]	8.82 ± 0.43
ACGTATCAAAAAATTTGTACATATATATATATATAT [XGTACX_site1024]	9.64 ± 0.13
GAACAGAAAAAGAATAGTACATATATATATATATAT [XGTACX_site3700]	9.59 ± 0.21
TATAATATGAACAGTACACACAAAATAAATTCGTAT [CACACA_site3586]	9.19 ± 0.38
ATTCAAAATAATAGAATTGTTAAAGTTGTAAATTGA [CACACA_negctrl_site727]	8.4 ± 0.49
GTTTATGTTAAACCATGTACTTAATATTTTATTCTT [XGTACX_site3761]	8.79 ± 0.45
AAAAAAAAAGTATTATGTACATAAAAATAAAAAAAT [XGTACX_site4166]	8.97 ± 0.54
TATTAAAATATGTCAGTTCTTAAAAAGTTGATGAGT [GTGCAC_negctrl_site77]	8.44 ± 0.38
TATGATTCATAATAGTGTACGTAAAAATTGACTAGA [XGTACX_site5376]	8.8 ± 0.44
ATTGTAGAATTTAATAGTACTCACGAATAAAATAAA [XGTACX_site6280]	8.52 ± 0.53
AAAAATATATAAAGAAAAAGAATATAATATAAAATA [GTGCAC_negctrl_site208]	8.63 ± 0.52
GCATTTTAATAATTATGTACATATATTATTCCTGGT [XGTACX_site3664]	8.96 ± 0.5
TTCCATCAAAAAATGGGTACACATTATAGAAATATT [XGTACX_site8482]	8.6 ± 0.4
ACGCATGTAATTTATACACACATTCTTTTATATTTT [CACACA_site3708]	8.99 ± 0.39
TATACATATATATATACACACATATATATATATACA [CACACA_site402]	9.15 ± 0.24
AAATTATTATCGTTAATATGTATATATGTGCCAAGT [TGCATGCA_negctrl_site557]	8.72 ± 0.4
AAAACATACAGATATACACACATATATATATATATA [CACACA_site5091]	10.1 ± 0.15
